# Results as given in PMC10407929.
# The list shows a part of the results. The protein was read in a cell extract, so binding may be indirect.
# What was measured:
# Assay in all cases: pull-down
# Conditions in all cases: 5mC at 15,17 (strand 1); 5mC at 14,16 (strand 2); 150 mM NaCl, 50 mM Tris pH 8.0, 0.25% NP-40, 1 mM DTT; 4 C, 2 h; 100 ug nuclear extract; double strand, one strand shown
# RBM14 (Homo sapiens) = target: T1, RBM14 (Homo sapiens) (UniProt Q96PK6)
# T1 sequence: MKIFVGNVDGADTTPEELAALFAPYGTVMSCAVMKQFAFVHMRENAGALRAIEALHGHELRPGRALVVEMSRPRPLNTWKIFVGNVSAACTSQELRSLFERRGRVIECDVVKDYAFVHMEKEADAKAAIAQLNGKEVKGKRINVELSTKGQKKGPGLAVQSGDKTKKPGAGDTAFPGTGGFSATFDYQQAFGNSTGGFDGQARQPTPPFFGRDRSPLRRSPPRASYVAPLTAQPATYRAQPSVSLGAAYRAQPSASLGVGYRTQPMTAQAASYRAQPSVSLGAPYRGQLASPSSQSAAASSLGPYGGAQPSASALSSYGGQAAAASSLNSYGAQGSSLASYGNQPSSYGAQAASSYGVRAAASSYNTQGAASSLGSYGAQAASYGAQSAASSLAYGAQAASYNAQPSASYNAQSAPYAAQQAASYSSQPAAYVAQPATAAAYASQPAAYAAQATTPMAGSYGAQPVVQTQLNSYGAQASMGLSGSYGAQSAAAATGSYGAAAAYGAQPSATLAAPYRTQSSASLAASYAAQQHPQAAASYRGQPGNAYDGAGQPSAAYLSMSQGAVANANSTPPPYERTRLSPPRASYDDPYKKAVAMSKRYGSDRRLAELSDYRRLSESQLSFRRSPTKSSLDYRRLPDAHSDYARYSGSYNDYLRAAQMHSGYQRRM
# RFC1 (Homo sapiens) = target: T2, RFC1 (Homo sapiens) (UniProt P35251)
# T2 sequence: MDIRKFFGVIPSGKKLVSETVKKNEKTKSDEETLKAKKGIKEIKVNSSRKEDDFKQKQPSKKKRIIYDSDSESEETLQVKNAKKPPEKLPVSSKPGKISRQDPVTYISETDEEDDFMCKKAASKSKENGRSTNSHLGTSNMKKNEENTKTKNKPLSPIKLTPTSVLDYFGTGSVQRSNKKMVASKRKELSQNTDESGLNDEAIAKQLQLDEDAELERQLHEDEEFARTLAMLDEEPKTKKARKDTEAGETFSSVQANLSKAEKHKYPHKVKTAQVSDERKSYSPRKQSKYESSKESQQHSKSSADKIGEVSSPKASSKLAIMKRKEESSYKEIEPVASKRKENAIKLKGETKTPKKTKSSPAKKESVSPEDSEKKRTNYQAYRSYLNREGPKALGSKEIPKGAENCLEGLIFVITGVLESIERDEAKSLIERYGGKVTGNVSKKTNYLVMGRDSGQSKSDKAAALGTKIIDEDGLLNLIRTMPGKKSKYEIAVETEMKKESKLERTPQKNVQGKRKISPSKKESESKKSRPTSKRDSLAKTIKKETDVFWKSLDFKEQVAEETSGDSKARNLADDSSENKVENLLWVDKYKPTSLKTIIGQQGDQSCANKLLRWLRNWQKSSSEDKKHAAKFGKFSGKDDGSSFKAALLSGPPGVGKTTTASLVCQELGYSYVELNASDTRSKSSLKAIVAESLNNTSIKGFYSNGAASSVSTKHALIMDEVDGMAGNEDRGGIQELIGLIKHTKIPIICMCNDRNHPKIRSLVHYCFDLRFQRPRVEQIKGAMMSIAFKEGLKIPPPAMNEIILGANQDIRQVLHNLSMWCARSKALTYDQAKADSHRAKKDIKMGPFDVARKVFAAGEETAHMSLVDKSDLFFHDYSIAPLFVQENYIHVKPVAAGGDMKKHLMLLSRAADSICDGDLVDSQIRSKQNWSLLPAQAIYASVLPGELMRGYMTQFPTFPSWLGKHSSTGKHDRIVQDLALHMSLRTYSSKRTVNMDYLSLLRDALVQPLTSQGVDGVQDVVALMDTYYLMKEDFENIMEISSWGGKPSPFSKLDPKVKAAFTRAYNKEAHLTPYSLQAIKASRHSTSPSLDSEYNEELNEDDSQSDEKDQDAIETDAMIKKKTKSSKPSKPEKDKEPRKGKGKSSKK
# RFC2 (Homo sapiens) = RFC2 (Homo sapiens) (UniProt P35250)
# RFC4 (Homo sapiens) = RFC4 (Homo sapiens) (UniProt P35249)
# RFC5 (Homo sapiens) = RFC5 (Homo sapiens) (UniProt P40937)
# UniProt P40937, sequence (P40937 whole entry): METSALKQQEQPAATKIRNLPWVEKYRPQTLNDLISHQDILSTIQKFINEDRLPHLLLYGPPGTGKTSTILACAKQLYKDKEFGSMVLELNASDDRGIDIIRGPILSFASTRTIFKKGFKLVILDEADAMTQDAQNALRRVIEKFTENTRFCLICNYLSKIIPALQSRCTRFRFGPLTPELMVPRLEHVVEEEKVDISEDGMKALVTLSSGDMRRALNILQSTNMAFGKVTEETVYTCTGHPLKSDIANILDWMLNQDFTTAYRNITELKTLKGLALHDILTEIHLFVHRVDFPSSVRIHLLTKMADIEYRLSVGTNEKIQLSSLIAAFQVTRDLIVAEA
# UniProt P35249, sequence (P35249 whole entry): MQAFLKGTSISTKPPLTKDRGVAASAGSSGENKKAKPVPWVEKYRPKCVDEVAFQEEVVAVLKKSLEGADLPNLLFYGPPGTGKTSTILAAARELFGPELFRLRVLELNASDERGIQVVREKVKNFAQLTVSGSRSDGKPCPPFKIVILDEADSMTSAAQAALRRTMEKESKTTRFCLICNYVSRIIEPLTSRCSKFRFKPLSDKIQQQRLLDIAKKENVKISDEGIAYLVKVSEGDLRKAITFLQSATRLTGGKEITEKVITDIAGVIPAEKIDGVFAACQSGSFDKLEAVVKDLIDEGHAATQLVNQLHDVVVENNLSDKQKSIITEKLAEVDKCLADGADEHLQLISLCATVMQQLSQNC
# UniProt P35250, sequence (P35250 whole entry): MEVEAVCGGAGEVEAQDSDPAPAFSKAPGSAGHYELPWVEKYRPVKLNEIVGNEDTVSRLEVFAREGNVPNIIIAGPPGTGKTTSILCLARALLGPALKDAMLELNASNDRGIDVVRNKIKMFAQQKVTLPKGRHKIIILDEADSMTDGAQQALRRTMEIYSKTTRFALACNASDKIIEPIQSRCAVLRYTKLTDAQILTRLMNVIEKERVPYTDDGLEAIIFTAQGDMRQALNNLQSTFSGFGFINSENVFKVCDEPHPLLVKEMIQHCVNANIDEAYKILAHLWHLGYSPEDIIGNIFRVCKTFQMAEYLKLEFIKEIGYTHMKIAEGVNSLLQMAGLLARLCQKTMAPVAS
sequence,measurement,setting,value
GCCGCCGCCCTTCTCGCGAGACTGCCGGGCC [methylated CGCG bait],half-maximal binding,RBM14 (Homo sapiens),185 nM
same,half-maximal binding,RFC1 (Homo sapiens),181 nM
same,half-maximal binding,RFC2 (Homo sapiens),198 nM
same,half-maximal binding,RFC4 (Homo sapiens),190 nM
same,half-maximal binding,RFC5 (Homo sapiens),157 nM
